Measured values from PubChem BioAssay AID1625 (Sanford-Burnham Center for Chemical Genomics, 2009).
Values joined by “and” are separate entries in the source; they are usually repeats but may differ in a detail not shown here. Identical values can stand only once. This is one part of the list. These are further read-outs of the screen, such as a control signal, another cell line or another target. No call is given for them. Compounds called inactive in the main read-out are mostly missing here.

Experiment: insulin promoter activators in MIN6 cells, imaging, high-content screening, mouse beta cells (AID 1625);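 note: total cells summed across four imaged fields per well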
Settings: MIN6 insulin promoter-GFP reporter, measured here: cytotoxicity, nuclei count, at 5 µM
With `CCC(c1nnnn1C(C)(C)C)N(Cc1ccco1)Cc1cc2cccc(C)c2[nH]c1=O` (centres undefined) the cell count was 455 cells.
With `CSc1c(C#N)c(N)nc2sc(C(=O)c3ccc(Cl)c(Cl)c3)c(N)c12` the cell count was 870 cells.
Work on `COC(=O)c1oc2c(c1C)C1(CCC2)SCCS1` yielded a cell count of 379 cells.
`CCCCC1=CC2=C(c3ccco3)C(=O)C(C)(OC(=O)c3ccc(OC)cc3)C(=O)C2=CN1CC(C)C` (centres undefined) showed a cell count of 610 cells.
`CC(=O)c1c(C)[nH]c(C(=O)NCc2ccccn2)c1C` gave a cell count of 425 cells.
`CC#CC[N+](C)(C)CCCCCCCCCC` gave a cell count of 295 cells.
Work on `CCCNC(=O)N1CCC(C(=O)c2ccc(Cl)cc2)CC1` yielded a cell count of 1420 cells.
With `CCN1CC=C2C(C#N)=C(N)C(C#N)(C#N)[C@H](c3cccc(OC)c3OC)[C@H]2C1` the cell count was 1090 cells.
With `NC(=O)c1cc2ccc(O)cc2oc1=NCc1ccccc1` the cell count was 1130 cells.
`Nc1c(C(=O)c2ccc(Cl)cc2)sc2nsc(SCCN3CCOCC3)c12` gave a cell count of 1030 cells.
With `COCc1nnc(NC(=O)c2ccc(Cl)cc2[N+](=O)[O-])s1` the cell count was 484 cells.
`O=C(N/N=C/c1ccccn1)c1cc(-c2ccc(Br)cc2)nc2ccccc12` showed a cell count of 488 cells.
Work on `O=C1C=CC(O)(c2cc(=O)c3c(O)cc(O)cc3o2)C=C1` yielded a cell count of 237 cells.
With `C=CCN1C(=O)/C(=C/c2ccc(N(C)C)cc2)S/C1=N\c1nnc(CC)s1` the cell count was 835 cells.
With `N#Cc1cccc(NC(=O)CSc2ccc3c4c(cccc24)C(=O)c2ccccc2-3)c1` the cell count was 914 cells.
With `CCOC(=O)N1CCC(NC(=O)C2CCCN(Cc3nc(-c4cccc(Cl)c4)oc3C)C2)CC1` (centres undefined) the cell count was 344 cells.
`C(=N\Nc1nc2ccccc2[nH]1)/c1ccccn1` showed a cell count of 487 cells.
For `COc1ccc(-c2cn(-c3ccccc3)c3[n+]2CCS3)cc1`, the cell count was 347 cells and 304 cells.
Compound `N#C/C(=C/c1ccc(N2CCOCC2)o1)c1ccc(Br)cc1` has a cell count of 1120 cells.
`CC(C)C1S/C(=N/N=C/c2ccco2)NC1=O` (centres undefined) gave a cell count of 1250 cells.
`CCCc1nc2oc(C(=O)c3ccccc3)c(N)c2c2c1COC(C)(C)C2` showed a cell count of 293 cells.
`CC(C)CC(=O)NC1(C(F)(F)F)C(=O)N(CC(C)C)C2=C1C(=O)CC(C)(C)C2` (centres undefined) gave a cell count of 296 cells.
For `O=C(Nc1ccc(C2CCCCC2)cc1)C1CCCN(c2ncccn2)C1` (centres undefined), the cell count was 1080 cells.
In the case of `O=[N+]([O-])c1ccc(-c2ccc(/C=N/Nc3nc(N4CCCCC4)nc(N4CCCCC4)n3)o2)cc1`, the cell count is reported as 1270 cells.
For `CC#CC[N+](C)(C)CCCCCCCCCCCC`, the cell count was 208 cells.
`CC(C)N1CCc2c(sc(NC(=O)c3ccc(S(=O)(=O)N4CCc5ccccc54)cc3)c2C(N)=O)C1` gave a cell count of 1030 cells.
`O=C(c1cc(NC(=O)C23CC4CC(CC(C4)C2)C3)cc(NC(=O)C23CC4CC(CC(C4)C2)C3)c1)N1CCCCC1` gave a cell count of 383 cells.
In the case of `CCCSc1nc(O)c(C2OC(=O)c3c2ccc(OC)c3OC)c(=O)n1-c1ccccc1` (centres undefined), the cell count is reported as 328 cells.
In the case of `CC(=O)Nc1sc(/C(C#N)=C/c2ccc(Cl)c(Cl)c2)nc1-c1ccc(C)cc1`, the cell count is reported as 1310 cells.
For `CC(C)NC(=O)/C(C#N)=C/c1ccc(N(C)C)o1`, the cell count was 987 cells.
Compound `COc1cc(/C=C(\C#N)c2nc3ccccc3o2)ccc1O` has a cell count of 1000 cells.
Work on `COc1ccc(OCCn2cc(/C(N)=N/O)c3ccccc32)cc1` yielded a cell count of 1370 cells.
`CC(=O)c1cc(NC(=O)c2ccc(Cl)cc2)c(=O)oc1/C=C/N(C)C` showed a cell count of 1990 cells.
With `Nc1nonc1C(=O)NCCNCc1cc(Br)ccc1OCc1ccc(F)cc1` the cell count was 415 cells.
With `COc1ccc(N(CCN2C(=O)c3ccccc3C2=O)C(=O)c2cccc([N+](=O)[O-])c2)cc1` the cell count was 1440 cells.
Work on `CCC(C)(C)c1ccc(OCCCC[n+]2ccc(C)cc2)c(C(C)(C)CC)c1` yielded a cell count of 224 cells.
Compound `NC(=O)CC[C@@H]1NC(=O)[C@@H]2CCCN2C(=O)c2cc([N+](=O)[O-])cc(F)c2NCCC[C@@H](C(N)=O)NC1=O` has a cell count of 455 cells.
`Cc1cccn2c(=O)c(/C=C3\SC(=S)N(CC(C)C)C3=O)c(NCCCOC(C)C)nc12` showed a cell count of 877 cells.
For `Oc1c(CN2CCCCC2)cc(COCc2ccccc2)c2cccnc12`, the cell count was 460 cells.
`Cc1cc(NC(=O)/C(C#N)=C/c2ccc(-c3ccc(SC(F)F)cc3)o2)n(-c2ccccc2)n1` gave a cell count of 1460 cells.
`Cc1ccc(C(=O)NCCn2c(N)c(C#N)c3nc4ccccc4nc32)cc1` gave a cell count of 1250 cells.
Work on `Cc1nnc(NC(=O)c2sc3nc(-c4cccs4)cc(C(F)(F)F)c3c2N)s1` yielded a cell count of 1710 cells.
For `COc1ccc(OC)c(NC(=O)C2CC(=O)N(c3ccccc3)C2)c1` (centres undefined), the cell count was 327 cells.
For `Cc1cc(C)cc(N(CC(=O)N2CCn3c2nc2ccccc23)S(=O)(=O)c2c(C)noc2C)c1`, the cell count was 468 cells.
`COc1cc(N=Nc2cccc(S(N)(=O)=O)c2)c2ccccc2c1N` gave a cell count of 904 cells.
With `CC(=O)Nc1sc2c(c1-c1nc3ccccc3s1)CCN(C(C)C)C2` the cell count was 479 cells.
`CC(C)CN=C(NS(=O)(=O)c1ccccc1)C(Cl)(Cl)Cl` gave a cell count of 464 cells.
Compound `CC(=O)C1=C(c2ccc(Br)cc2)C(=O)c2ccccc2C1=O` has a cell count of 497 cells.
In the case of `Cc1cc(C)cc(N(CC(=O)N2CC=C(c3ccccc3)CC2)S(=O)(=O)c2c(C)noc2C)c1`, the cell count is reported as 404 cells.
With `CCCCCCc1cc2cc(-c3nnc(-c4cc(OC)c(OC)c(OC)c4)o3)c(=O)oc2cc1O` the cell count was 632 cells.
`O=C(CN1CCN(Cc2ccccc2)C1=O)NCCCN1CCOCC1` gave a cell count of 472 cells.
Compound `C(=C\c1ccccc1)/CN1CCN(c2ncnc3c2oc2ccccc23)CC1` has a cell count of 280 cells.
Compound `O=C(CCSc1nnc(-c2ccccc2)o1)N1CCOCC1` has a cell count of 499 cells.
Compound `Cc1cc(C)n(-c2ccc(OCC(=O)O)nn2)n1` has a cell count of 978 cells.
`COC(=O)c1[nH]c2cccc(Cl)c2c1NC(=O)CN(C)C1CCCCC1` gave a cell count of 950 cells.
`c1ccc2c(c1)CCN(c1ncnc3c1[nH]c1ccccc13)C2` showed a cell count of 489 cells.
With `CC1(C)CC(N2CCN(c3ccccc3)CC2)=CC(=[N+]2CCCC2)C1` the cell count was 230 cells.
For `COc1nnc(-c2ccc(N3CCCCC3)c(NC(=O)C3CCCCC3)c2)c2ccccc12`, the cell count was 469 cells.
`N=c1n(CC(=O)c2ccc([N+](=O)[O-])cc2)c2ccccc2n1Cc1ccc(Cl)cc1` gave a cell count of 478 cells.
Work on `CCc1nc2c(n1O)CCc1nonc1-2` yielded a cell count of 493 cells.
`CCOC(=O)CC1C(=O)NCCN1c1nc2ccc(C)cn2c(=O)c1/C=C1\SC(=S)N(CC(C)C)C1=O` (centres undefined) showed a cell count of 1100 cells.
Work on `COc1nc(-c2ccccc2)c2c(c1C#N)CC(C)(C)OC2` yielded a cell count of 442 cells.
In the case of `COCCN1C(=O)/C(=C/c2ccc(N3CCCC3)cc2)SC1=S`, the cell count is reported as 1520 cells.
`CCCc1cc(=O)[nH]c(SCC(=O)NCCCC(=O)OCC)n1` showed a cell count of 1050 cells.
